The other results are listed elsewhere or left out. Most values come without repeats; read them as rough.

The values that follow come from the supplement of paper PMC4604168 (melanoma cell lines).
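Also: cells treated in 1,536-well plates, then fixed and DAPI-stained, with nuclei counted from automated high-throughput microscope images.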

In this assay the test system is A375. The assay can be described thus: cell count relative to DMSO control; melanoma cells; higher = more viable cells. The conditions noted are these: library dose: standard library concentration; 72 h.
Consider `CN(C)S(=O)(=O)c1ccc2c(c1)/C(=C/c1cc3c([nH]1)CCCC3)C(=O)N2` + NCC(=O)Nc1ccc(-n2nc(C(F)(F)F)cc2-c2ccc3c(ccc4ccccc43)c2)cc1 [OSU03012] (first compound 2 µM, partner dose 5 µM), for which the cell count stood at 54.2%.

Compound `C[C@]1(c2nc3c(C(N)=O)cccc3[nH]2)CCCN1` [Veliparib] + O=C(CCCCCCC(=O)Nc1ccccc1)NO [vorinostat] (first compound 7 µM, partner dose 0.4 µM) displayed a cell count of 94.2%.

`CO[C@@H]1[C@H](N(C)C(=O)c2ccccc2)C[C@H]2O[C@]1(C)n1c3ccccc3c3c4c(c5c6ccccc6n2c5c31)C(=O)NC4` [Midostaurin] + CC(C)(C)c1cnc(CSc2cnc(NC(=O)C3CCNCC3)s2)o1 [SNS-032] (first compound 0.4 µM, partner dose 0.05 µM) showed a cell count of 75.8%.

`C=CCn1c(=O)c2cnc(Nc3ccc(N4CCN(C)CC4)cc3)nc2n1-c1cccc(C(C)(C)O)n1` + CN(NC(=O)CC(=O)NN(C)C(=S)c1ccccc1)C(=S)c1ccccc1 [STA4783] (first compound 0.1 µM, partner dose 0.03 µM): the cell count stood at 62.4%.

The compound `C[C@]1(c2nc3c(C(N)=O)cccc3[nH]2)CCCN1` [Veliparib] + OCCn1cc(-c2cnc3nnn(Cc4ccc5ncccc5c4)c3n2)cn1 [PF04217903] (first compound 7 µM, partner dose 5 µM) gave a cell count of 93.1%.

Compound `C=CCn1c(=O)c2cnc(Nc3ccc(N4CCN(C)CC4)cc3)nc2n1-c1cccc(C(C)(C)O)n1` + C[C@@H]1CCN(C(=O)CC#N)C[C@@H]1N(C)c1ncnc2[nH]ccc12 [CP690550] (first compound 0.1 µM, partner dose 5 µM) came in with a cell count of 55.5%.

As for `CO[C@@H]1[C@H](N(C)C(=O)c2ccccc2)C[C@H]2O[C@]1(C)n1c3ccccc3c3c4c(c5c6ccccc6n2c5c31)C(=O)NC4` [Midostaurin] + Cc1cc(N2CCOCC2)cc2[nH]c(-c3c(NC[C@@H](O)c4cccc(Cl)c4)cc[nH]c3=O)nc12 [BMS536924] (first compound 0.4 µM, partner dose 1 µM), the cell count came to 76.8%.

As to `C=CCn1c(=O)c2cnc(Nc3ccc(N4CCN(C)CC4)cc3)nc2n1-c1cccc(C(C)(C)O)n1` + NCC(=O)Nc1ccc(-n2nc(C(F)(F)F)cc2-c2ccc3c(ccc4ccccc43)c2)cc1 [OSU03012] (first compound 0.1 µM, partner dose 5 µM), the cell count is 50%.

Consider `NCC(=O)Nc1ccc(-n2nc(C(F)(F)F)cc2-c2ccc3c(ccc4ccccc43)c2)cc1` + COc1cc(N2CCC(N3CCN(C)CC3)CC2)ccc1Nc1ncc(Cl)c(Nc2ccccc2S(=O)(=O)C(C)C)n1 [NVP-TAE684] (first compound 5 µM, partner dose 0.4 µM), for which the cell count was determined as 48%.

Consider `CN(C)S(=O)(=O)c1ccc2c(c1)/C(=C/c1cc3c([nH]1)CCCC3)C(=O)N2` + O=C(O)c1ccc(-c2c[nH]c3ncc(-c4ccccc4)cc23)cc1C1CCCC1 [GSK650394] (first compound 2 µM, partner dose 0.8 µM), for which the cell count worked out at 118%.

The compound `C[C@]1(c2nc3c(C(N)=O)cccc3[nH]2)CCCN1` [Veliparib] + O=C(O)c1ccc(-c2c[nH]c3ncc(-c4ccccc4)cc23)cc1C1CCCC1 [GSK650394] (first compound 7 µM, partner dose 0.8 µM) showed a cell count of 87.7%.

With `C=CCn1c(=O)c2cnc(Nc3ccc(N4CCN(C)CC4)cc3)nc2n1-c1cccc(C(C)(C)O)n1` + Cc1cc(N2CCOCC2)cc2[nH]c(-c3c(NC[C@@H](O)c4cccc(Cl)c4)cc[nH]c3=O)nc12 [BMS536924] (first compound 0.1 µM, partner dose 1 µM), the cell count came to 62.2%.

With `CN(C)S(=O)(=O)c1ccc2c(c1)/C(=C/c1cc3c([nH]1)CCCC3)C(=O)N2` + CN(NC(=O)CC(=O)NN(C)C(=S)c1ccccc1)C(=S)c1ccccc1 [STA4783] (first compound 2 µM, partner dose 0.03 µM), the cell count is 160%.

In turn, `C[C@]1(c2nc3c(C(N)=O)cccc3[nH]2)CCCN1` [Veliparib] + Cn1nnc2c(C(N)=O)ncn2c1=O [temozolomide] (first compound 7 µM, partner dose 10 µM) came in with a cell count of 60.9%.

The compound `Cc1nc(Nc2ncc(C(=O)Nc3c(C)cccc3Cl)s2)cc(N2CCN(CCO)CC2)n1` [dasatanib] + CN(NC(=O)CC(=O)NN(C)C(=S)c1ccccc1)C(=S)c1ccccc1 [STA4783] (first compound 0.02 µM, partner dose 0.03 µM) gave a cell count of 63.1%.

`Cc1nc(Nc2ncc(C(=O)Nc3c(C)cccc3Cl)s2)cc(N2CCN(CCO)CC2)n1` [dasatanib] + CC(C)(C)c1cnc(CSc2cnc(NC(=O)C3CCNCC3)s2)o1 [SNS-032] (first compound 0.02 µM, partner dose 0.05 µM) came in with a cell count of 69.2%.

Take `Cc1nc(Nc2ncc(C(=O)Nc3c(C)cccc3Cl)s2)cc(N2CCN(CCO)CC2)n1` [dasatanib] + CN(C)S(=O)(=O)c1ccc2c(c1)/C(=C/c1cc3c([nH]1)CCCC3)C(=O)N2 [SU6656] (first compound 0.02 µM, partner dose 2 µM): the cell count worked out at 78.3%.

Regarding `C=CCn1c(=O)c2cnc(Nc3ccc(N4CCN(C)CC4)cc3)nc2n1-c1cccc(C(C)(C)O)n1` + Cc1cc([N+](=O)[O-])ccc1NS(=O)(=O)c1cc(Cl)ccc1Cl [FH535] (first compound 0.1 µM, partner dose 5 µM), the cell count was 63.2%.

Turning to `OCCn1cc(-c2cnc3nnn(Cc4ccc5ncccc5c4)c3n2)cn1` + O=C(Nc1cccc(Cl)c1)Nc1ncc(CCNc2ncnc3ccsc23)s1 [SNS314] (first compound 5 µM, partner dose 0.004 µM), the cell count amounted to 91.5%.

Compound `Cc1nc(Nc2ncc(C(=O)Nc3c(C)cccc3Cl)s2)cc(N2CCN(CCO)CC2)n1` [dasatanib] + C[C@@H]1CCN(C(=O)CC#N)C[C@@H]1N(C)c1ncnc2[nH]ccc12 [CP690550] (first compound 0.02 µM, partner dose 5 µM) displayed a cell count of 67%.

`NCC(=O)Nc1ccc(-n2nc(C(F)(F)F)cc2-c2ccc3c(ccc4ccccc43)c2)cc1` + CN(NC(=O)CC(=O)NN(C)C(=S)c1ccccc1)C(=S)c1ccccc1 [STA4783] (first compound 5 µM, partner dose 0.03 µM): the cell count worked out at 40.3%.

For the compound `Cc1nc(Nc2ncc(C(=O)Nc3c(C)cccc3Cl)s2)cc(N2CCN(CCO)CC2)n1` [dasatanib] + COCC[n+]1c2c(n(Cc3cnccn3)c1C)C(=O)c1ccccc1C2=O [YM155] (first compound 0.02 µM, partner dose 0.002 µM), the cell count stood at 61.4%.

For `CN(C)S(=O)(=O)c1ccc2c(c1)/C(=C/c1cc3c([nH]1)CCCC3)C(=O)N2` + CC(C)CCN1c2nc(Nc3cc(F)c(O)c(F)c3)ncc2N(C)C(=O)C1C [BID1870] (first compound 2 µM, partner dose 1 µM), the cell count was 125%.

`C=CCn1c(=O)c2cnc(Nc3ccc(N4CCN(C)CC4)cc3)nc2n1-c1cccc(C(C)(C)O)n1` + Cc1ccc(NC(=O)c2cccc(N(C)C)c2)cc1NC(=O)c1ccc(O)cc1 [ZM336372] (first compound 0.1 µM, partner dose 10 µM) showed a cell count of 57.5%.

Regarding `Cc1nc(Nc2ncc(C(=O)Nc3c(C)cccc3Cl)s2)cc(N2CCN(CCO)CC2)n1` [dasatanib] + O=C(Nc1cccc(Cl)c1)Nc1ncc(CCNc2ncnc3ccsc23)s1 [SNS314] (first compound 0.02 µM, partner dose 0.004 µM), the cell count is 60.8%.
